Measured values published in PubChem BioAssay AID686978 (National Center for Advancing Translational Sciences (NCATS), 2013).
Out of some 420,000 compounds screened, about 64,000 (15%) were called active. The inconclusive results got no clear call from the source; some entries with a clear call stand among them for comparison. Calls follow the shape of the dose curve; as a rule, active = well fitted inhibition curve with a large enough effect; inconclusive = small, poorly fitted or top-dose-only effect; inactive = flat fitted curve, though single readings scatter. Potencies of inconclusive entries are left out as doubtful fits.

experiment: qHTS for Inhibitors of human tyrosyl-DNA phosphodiesterase 1 (TDP1): qHTS in cells in absence of CPT; settings: DT40 Tdp1-/- hTDP1 cells, no CPT, ATP luminescence, 48 h; activity change, negative = growth inhibition: at 46.2 µM (top of the series) unless noted; also: nearly all actives have a fitted effect of over 55% in size
Outline: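 Stably hTDP1-transfected Tdp1-null chicken DT40 cells were treated with library compounds minus camptothecin and grown for at least 48 hr at 37 °C, after which cellular ATP was quantified by luminescence.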
% is scaled to controls: 0 for no effect and ±100 for the full control effect; potency is read from the fitted curve at half-maximal effect; tags tell the direction and shape of the fitted curve.

SMILES	Potency	activity change, negative = growth inhibition
Cc1cc(C(=O)CSCCCn2c(=O)[nH]c3ccccc32)c(C)n1C	inconclusive [inhibitor, single point]	–
COCCCn1c(=O)c2ccccc2n(Cc2ccccc2C)c1=O	inconclusive [inhibitor, single point]	–
COc1ccccc1NC(=O)C(C)OC(=O)C1CC(=O)N(Cc2ccco2)C1 (configuration not stated)	–	inactive: -12%
CCOc1ccc(NS(=O)(=O)c2cc(Cl)ccc2OC)cc1	active: 16.4 µM	–
Cc1csc2nc(-c3cccc(NC(=O)c4ccccc4F)c3)cn12	inconclusive [inhibitor, single point]	–
O=[N+]([O-])c1cccc(C2NCC(c3ccccc3Cl)c3c2[nH]c2ccccc32)c1 (configuration not stated)	inconclusive [inhibitor, single point]	–
COc1cccc(CN2CCCC(C(=O)c3ccc4c(c3)OCO4)C2)c1O (configuration not stated)	–	inactive: -0.105%
O=C(C1=C[C@@H](c2csc3ccccc23)C[C@@H](OCc2ccc(CO)cc2)O1)N1CCOCC1	–	inactive: -23.7%
CCO[C@H]1OC(C(=O)NC2CC2)=C[C@@H](c2ccccc2)[C@@H]1CCCO	inconclusive [inhibitor, single point]	–
Cc1ccn(CC(=O)N2CCCC(N3CCN(c4cccc(C(F)(F)F)c4)CC3)C2)n1 (configuration not stated)	inconclusive [inhibitor, partial curve, poor fit]	–
COc1cc(C(=O)Nc2cccc(OCc3cc(=O)n4c(C)csc4n3)c2)cc(OC)c1OC	active: 14.6 µM	–
CC(C)=CC1C(C(=O)Nc2ccc(Br)cn2)C1(C)C (configuration not stated)	inconclusive [inhibitor, single point]	–
COc1cccc(-n2cc(C(=O)Oc3ccc(F)cc3)c3ccccc3c2=O)c1	inconclusive [inhibitor, single point]	–
Cc1nn2c(=O)cc(COC(=O)c3ccccc3NC(=O)C(C)C)nc2s1	active: 11.6 µM	–
C[C@@]12C(=O)Nc3ccc(Cl)cc3C(=O)N1[C@H]1c3cc(Br)ccc3OC[C@@H]1[C@@H]2c1ccccc1	inconclusive [inhibitor, single point]	–
OCC1(Cc2ccccc2Cl)CCN(C/C=C/c2ccccc2)CC1	active: 18.4 µM	–
Cc1ccccc1C(=O)N1CCc2c([nH]c3ccccc23)C1C(F)(F)F (configuration not stated)	inconclusive [inhibitor, single point]	–
COc1ccc(NC(=O)c2cccc(N3C(=O)NC4CC3(C)Oc3ccccc34)c2)cc1 (configuration not stated)	inconclusive [inhibitor, single point]	–
COCCn1nnnc1CN1CCC(NC(=O)Nc2cccc(OC)c2)CC1	–	inactive: -6.87%
COc1ccccc1C1CN(CC(=O)N[C@H]2CCCCNC2=O)Cc2ccccc2O1 (some centres not stated)	inconclusive [inhibitor, single point]	–
COc1ccc(CN2C(=O)COc3ccccc32)cc1	–	inactive: -20%
COc1ccc(S(=O)(=O)N2CCC(c3nnc(-c4ccccc4C)o3)CC2)c(OC)c1	active: 6.51 µM	–
CCCn1c2c(c(O)c(C(=O)NCc3ccccc3)c1=O)CCCC2	inconclusive [inhibitor, partial curve, poor fit]	–
CC(C)(C)n1cnc2cc(NC(=O)c3ccccc3)ccc21	inconclusive [inhibitor, single point]	–

SMILES	Potency	activity change, negative = growth inhibition
CC(C)N=C1SCC(C)(/C=N/O)S1 (configuration not stated)	–	inactive: -2%
COc1ccc(NC(=O)CN(C)C(=O)C2(c3ccccc3)CCCC2)cc1	inconclusive [inhibitor, single point]	–
CCOc1ccc(-c2nnc3ccc(SCC(=O)Nc4nc5ccccc5s4)nn23)cc1	active: 18.4 µM	–
CC1=C(C(=O)OCc2ccccc2)C(c2cccc(Br)c2)NC(=O)N1 (configuration not stated)	inconclusive [inhibitor, partial curve]	–
Cc1cc(S(=O)(=O)NCCc2ccccc2)ccc1-n1cnnn1	–	inactive: -25.3%
C(=N/Nc1nccs1)/c1cccnc1	inconclusive [inhibitor, single point]	–
Cc1nnc2ccc(-c3ccc(NC(=O)Cc4cccs4)cc3)nn12	inconclusive [inhibitor, partial curve]	–
CSc1cccc(NC(=S)NC(=O)c2cccnc2)c1	–	inactive: -18.7%
O=c1c(CN2CCOc3ccc(CN4CCC(Oc5cccnc5)CC4)cc3C2)coc2ccccc12	inconclusive [inhibitor, partial curve]	–
CC(C)C1COC(c2cccn2Cc2ccccc2Cl)=N1 (configuration not stated)	–	inconclusive: -30.3% [inhibitor]
CC(C(=O)NC1CCCCC1)N1CCN(S(=O)(=O)c2cccs2)CC1 (configuration not stated)	–	inactive: -5.61%
COC(=O)CNC(c1ccccc1Cl)c1cc(Br)ccc1NS(=O)(=O)c1ccc(C)cc1 (configuration not stated)	active: 16.4 µM	–
COc1ccc(/C=N/NC(=O)NC23CC4CC(CC(C4)C2)C3)c(OC)c1	active: 23.1 µM	–
COC(=O)c1c(-n2cnnn2)sc(C)c1C	–	inactive: 0.467%
COc1cccc(S(=O)(=O)Nc2ccc(C(=O)NCc3ccco3)cc2)c1	inconclusive [inhibitor, partial curve]	–
COc1cccc(NC(C(=O)Nc2cccc(C(C)=O)c2)c2ccccc2)c1 (configuration not stated)	inconclusive [inhibitor, single point]	–
O=C(O)CCC(=O)Nc1ccc(Br)cc1C(=O)c1ccc(Cl)cc1	–	inactive: 5.84%
CCn1c(SCC(=O)Nc2ccc(C)cc2)nc2sc3c(c2c1=O)CCN(C)C3	inconclusive [inhibitor, single point]	–
CCc1nnc(SCC(=O)NC2CC2)n1CC	–	inactive: 3.94%
O=C1CCCN1c1ccc(S(=O)(=O)NCCc2ccc(Cl)cc2)cc1	inconclusive [inhibitor, single point]	–
COc1cc(NC(=O)c2cc(-c3ccccc3)nc3c2cnn3C(C)C)cc(OC)c1OC	active: 5.8 µM	–
CCOc1ccccc1N1CCN(C(=O)c2ccc(OCC(=O)N3CCOCC3)c(OC)c2)CC1	–	inactive: 20.8%
CC1CN(C(=O)c2cc(S(=O)(=O)N3CCCC3)c(Cl)cc2Cl)CC(C)O1 (configuration not stated)	active: 18.4 µM	–
